PubChem BioAssay AID1466 (National Center for Advancing Translational Sciences (NCATS), 2008)
The campaign covered roughly 200,000 compounds. About 10 (0.005%) were called active. Inconclusive means that the source gave no clear call. Such entries were picked first, then a sample of the others. The call rests on the fitted dose curve; in most records, active means well fitted inhibition curve with a large enough effect; inconclusive means small, poorly fitted or top-dose-only effect, or effect the other way, or another doubt; inactive means no such curve, though single readings can be large or run the other way. No potency is given beside an inconclusive call; the fits are too rough.

Biological target: Lysosomal alpha-glucosidase (Homo sapiens) (UniProt P10253)
Test: qHTS Assay for Inhibitors of Human alpha-Glucosidase as a Potential Chaperone Treatment of Pompe Disease;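 on activity change, negative = inhibition: plate controls were uninhibited enzyme wells for no effect and no-enzyme background for full effect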
Settings: purified human GAA, 4-MU-alpha-glucoside fluorescence; activity change, negative = inhibition: at 76.9 µM (top of the series) unless noted
Outline: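 Compounds are titrated up to 77 uM against 4 nM human enzyme. Substrate 4-methylumbelliferyl-alpha-D-pyranoside (400 uM) reacts 20 min at room temperature in pH 5.0 buffer; liberated 4-methylumbelliferone is read at 440 nm.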
Potency means the concentration at half of the fitted maximal effect; tags describe the fitted curve by direction and shape.

| SMILES | Potency | activity change, negative = inhibition |
| --- | --- | --- |
| O=C(c1cccc(C(F)(F)F)c1)C1CCCN(C(=O)CCc2cnccn2)C1 (stereo not drawn) | inconclusive [inhibitor, single point] |  |
| Cc1nc(CN2CCN(Cc3nc(C(c4ccccc4)c4ccccc4)no3)CC2)cs1 | inconclusive [inhibitor, full curve, poor fit] |  |
| Cc1ccc(C(=O)NC2CC3CCC(C2)N3Cc2ccco2)cc1 (stereo not drawn) | inconclusive [inhibitor, single point] |  |
| [O-]c1n[n+](-c2ccc(Cl)cc2)cc2ccccc12 | inconclusive [inhibitor, single point] |  |
| O=C(NCc1nnc2c3ccccc3c(-c3ccccc3)nn12)c1ccccc1Cl | inconclusive [inhibitor, single point] |  |
| Cc1cc(N/N=C/c2ccccc2Br)nc2ccccc12 | inconclusive [inhibitor, partial curve] |  |
| N#C/C(=N/Nc1ccccc1F)C(=N)N1CCOCC1 |  | inconclusive: -20.3% [inhibitor] |
| COc1ccc(C(=O)NCC2(c3ccccc3)CCOCC2)cc1[N+](=O)[O-] | inconclusive [inhibitor, single point] |  |
| COc1ccc2nc(NC(=O)CN(c3ccc(C)cc3)S(=O)(=O)c3c(C)nn(C)c3C)sc2c1 | inconclusive [inhibitor, single point] |  |
| CC1Cc2ccccc2N1C(=S)Nc1cccc(S(=O)(=O)N(C)C)c1 (stereo not drawn) | inconclusive [inhibitor, single point] |  |
| O=C(N1CCN(c2cccc(Cl)c2)CC1)C1(c2cccs2)CCOCC1 | inconclusive [inhibitor, full curve, poor fit] |  |
| CCn1c(C)nc2cc(C(=O)NNC(=O)Nc3ccc(Cl)cc3)ccc21 |  | inconclusive: 7.03% [activator] |
| CCOC(=O)C1C(=O)CC(C)(O)C(C(=O)OCC)C1c1ccc(Br)cc1 (stereo not drawn) |  | inconclusive: 8.33% [activator] |
| Nc1ccc2c(C(F)(F)F)cc(=O)oc2c1 | inconclusive [activator, partial curve] |  |
| O=C(Nc1cccc(F)c1)C1CC(=O)N(c2ccc(Cl)cc2)C1 (stereo not drawn) | inconclusive [inhibitor, single point] |  |
| Cc1nc2c(C)cccc2cc1C(=O)N/N=C/c1ccc(C(=O)O)cc1 |  | inconclusive: 18.5% [activator] |
| O=c1[nH]c(CN2CCN(c3ccccc3)CC2)nc2scc(-c3ccccc3)c12 |  | inactive: 3.41% |
| COc1ccc(C(=O)/C=C/c2cccs2)c(OC(=O)c2cccc([N+](=O)[O-])c2)c1 | inconclusive [inhibitor, single point] |  |
| O=C(Nc1cccc(O)c1)c1cc2nc(-c3ccccc3)cc(-c3ccccc3)n2n1 | inconclusive [activator, partial curve] |  |
| COc1ccc(-c2cn3cc(C)ccc3n2)cc1F |  | inactive: 11.6% |
| Cc1cn2c(-c3cccnc3)nnc2s1 | inconclusive [inhibitor, partial curve, poor fit] |  |
| O=C(Nc1ccc(NC(=O)C2CC2)cn1)c1ccccc1Cl | inconclusive [inhibitor, partial curve] |  |

| SMILES | Potency | activity change, negative = inhibition |
| --- | --- | --- |
| Cc1ccccc1C(=O)Nc1ccc(N2CCCCCC2)cc1 |  | inconclusive: 1.21% [activator] |
| C=CCNC(=S)N/N=C(\C)c1ccc(OC)cc1 | inconclusive [inhibitor, partial curve, poor fit] |  |
| Cc1cc(C)cc(NC(=O)CSc2nnc(-c3ccccc3Br)o2)c1 | inconclusive [inhibitor, single point] |  |
| COc1ccc(OC)c(C=Nc2ccccc2-c2nc3ccccc3[nH]2)c1 | inconclusive [activator, partial curve] |  |
| CCC1CCc2[nH]nc(C(=O)O)c2C1 (stereo not drawn) |  | inconclusive: -15.2% [inhibitor] |
| CC1CC(C)(C)N(C(=O)CSc2ccc(-c3ccc(F)cc3)nn2)c2ccccc21 (stereo not drawn) | inconclusive [inhibitor, full curve] |  |
| Cc1cccc(NC(=S)NC(C)CCc2ccccc2)c1 (stereo not drawn) | inconclusive [inhibitor, single point] |  |
| COc1ccccc1-n1cnnc1SCC(=O)N1CCN(S(=O)(=O)c2ccccc2)CC1 |  | inconclusive: -18.5% [inhibitor] |
| CC(C)(C)c1ccc(OC2=CS(=O)(=O)c3ccccc32)cc1 | inconclusive [inhibitor, single point] |  |
| O=c1[nH]cnc2sc3c(c12)CCCCC3 | inconclusive [inhibitor, single point] |  |
| CCOC(=O)c1c(N)n(C2CC(C)(C)NC(C)(C)C2)c2nc3ccccc3nc12 | inconclusive [activator, partial curve] |  |
| CC(=O)NC(=O)Nc1sc(=S)n(C)c1C |  | inactive: -9.2% |
| CN(C)c1c([N+](=O)[O-])ncn1C | inconclusive [inhibitor, single point] |  |
| O=C1NN(c2ccc(Cl)c(Cl)c2)C(=O)/C1=C/c1cccc(OC(=O)c2cccs2)c1 |  | inactive: -2.33% |
| C=CCn1c(SCC(O)Cn2c3ccccc3c3ccccc32)nnc1-c1ccco1 (stereo not drawn) | inconclusive [inhibitor, single point] |  |
| COc1cc(C(F)(F)F)c(C(=O)N(C)c2ccc(Cl)cc2)cn1 |  | inactive: -7.91% |
| COCCCNC(=O)CNC(=O)c1cn(-c2ccccc2OC)c(=O)c2ccccc12 |  | inactive: -0.928% |
| COC(=O)Cn1c(CN2CCC(Cc3ccccc3)CC2)nc2c1c(=O)n(C)c(=O)n2C | inconclusive [inhibitor, single point] |  |
| COCCNc1cc(C)nc2c3c(C)cc(C)nc3nn12 | inconclusive [activator, partial curve] |  |
| O=C1c2ccccc2-c2cccc(NS(=O)(=O)c3ccc(C(F)(F)F)cc3)c21 |  | inconclusive: -15% [inhibitor] |
| Cc1cc(C)cc(N(C(=O)c2nsc(Cl)c2Cl)C(C(=O)NC2CCCC2)c2ccc(O)cc2)c1 (stereo not drawn) | inconclusive [inhibitor, single point] |  |
